58 compounds from the supplement of paper PMC4723716 can be followed below.

Over roughly 3,600 compounds, “viability index relative to DMSO control” has its median near 0.81; the lowest 2% begin near 0.13. The list shows a part of the results.
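Also: 384-well serum-free SaLSSA: MitoTracker Red CMXRos staining with saponin lysis, high-content imaging, treated-well particle count divided by plate-mean count of DMSO wells.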

The test system of the assay is Plasmodium falciparum NF54 stage V gametocytes. The assay can be described thus: viability index relative to DMSO control (fraction); higher = less gametocyte killing. Conditions: 1.25 µM, incubation time: 72 h.
Take `N#Cc1c2c(c(N3CCN(C(c4ccccc4)c4ccccc4)CC3)n3c1nc1ccccc13)CCC2`: the viability index stood at 1.23.

In turn, `Clc1ccccc1CN1CCc2nc(N3CCCCC3)sc2C1` returned a viability index of 0.798.

In turn, `CCOC(=O)C1=C(C)NC2=C(C(=O)CC(c3ccc(Cl)cc3)C2)C1c1ccc(Br)cc1` (stereo not drawn) yielded a viability index of 0.725.

`O=C(Cc1c(F)cccc1Cl)Nc1cc(C(=O)N2CCN(Cc3ccccc3)CC2)ccc1N1CC2CC(C1)c1cccc(=O)n1C2` (stereo not drawn) yielded a viability index of 0.324.

`CCOc1ccc(NC(=O)C(C)CSc2nc3ccc(NC(=O)CC)cc3s2)cc1` (stereo not drawn) returned a viability index of 1.

Take `COc1ccc2c(c1)-c1c(ssc1=S)C(C)(C)N2C(=O)c1cccc(Cl)c1`: the viability index amounted to 0.589.

As to `CC(C)(C)c1ccc(C(=O)N2CCCn3cccc3C2c2ccc(C(C)(C)C)cc2)cc1` (stereo not drawn), the viability index was 0.708.

As for `CC[n+]1c(C=Cc2ccc(Cl)cc2)ccc2ccccc21`, the viability index amounted to 0.738.

`CCOC(=O)c1cn(CC)c2cc(N3CCCCC3)c(F)cc2c1=O` gave a viability index of 0.573.

`CCOC(=O)c1cc(-c2ccc(C)cc2)n(CCC(=O)Nc2cccc(C(F)(F)F)c2)c1C` yielded a viability index of 0.438.

With `O=C(Cc1cccs1)N1CCC(n2c(Cc3ccc(F)cc3)nc3cccnc32)CC1`, the viability index came to 1.05.

The compound `Fc1ccc(C2(CCCSc3nnc4c(n3)[nH]c3ccccc34)OCCO2)cc1` displayed a viability index of 0.577.

Turning to `CSc1nnc(CCNC(=O)c2c(-c3ccccc3)noc2C)n1-c1ccc(F)cc1`, the viability index amounted to 0.865.

`O=Cc1c(OCc2ccc(Cl)cc2Cl)ccc2ccccc12` gave a viability index of 1.2.

`CCCCCCCCCCOC(=O)Cn1c(C)[n+](C)c2ccccc21` yielded a viability index of 0.969.

The compound `CCOc1ccc(Nc2cc(=O)oc3ccccc23)cc1` gave a viability index of 0.618.

`Cc1nc2c(C)c(-c3ccccc3)nn2c(O)c1C` displayed a viability index of 0.889.

`Cc1cc(NCCN2CCCCC2)c2ccc3ccccc3c2n1` displayed a viability index of 0.57.

Regarding `COc1ccc2cc(CNC3CCN(Cc4ccccc4)CC3)c(=O)[nH]c2c1`, the viability index is 0.753.

As to `CCOC(=O)c1cc(-c2ccc(OC)cc2)n(CCC(=O)NCc2ccc(OC)cc2)c1C`, the viability index amounted to 1.08.

`COc1ccc(Nc2cc(C)nc(NCc3ccccc3)n2)cc1`: the viability index was found to be 0.555.

`CCOC(=O)C(C)Oc1cccc2c(=O)n(CC(=O)Nc3ccc(OC(F)(F)F)cc3)ccc12` (stereo not drawn) yielded a viability index of 1.02.

In the case of `O=[N+]([O-])c1ccc(-c2nc3ccccc3n2-c2cc(-c3ccccc3)nn2-c2ccccc2)cc1`, the viability index is 0.798.

In turn, `CN1CCc2c(sc3nc(SCc4ccc(F)cc4)n(-c4ccccc4)c(=O)c23)C1` had a viability index of 0.726.

With `COC(=O)C1=C(C)NC2=C(C(=O)CC(c3ccc(OC)cc3)C2)C1c1ccc(F)cc1` (stereo not drawn), the viability index is 0.691.

In turn, `COc1ccc(C2Nc3ccc(C(C)=O)cc3C3C=CCC32)cc1[N+](=O)[O-]` (stereo not drawn) gave a viability index of 0.821.

In the case of `Cn1nc(C(F)(F)F)c(C(=O)Nc2ccc(Cl)cc2)c1Sc1ccc(Cl)cc1`, the viability index is 0.951.

Compound `C=CC1CN2CCC1CC2[C@H](O)c1ccnc2ccc(OC)cc12` (stereo partly drawn) registered a viability index of 0.785.

Compound `COc1ccc2nc(C)cc(Nc3ccc(Cl)cc3)c2c1` registered a viability index of 1.01.

The compound `Cc1ccc(C=Cc2ccc3ccccc3[n+]2C)cc1` had a viability index of 0.754.

The compound `COC1=C(Nc2cccc(C(F)(F)F)c2)C(=O)c2ccccc2C1=O` returned a viability index of 0.606.

As to `COc1ccc(-c2noc(CC(=O)Nc3ccccc3C#N)n2)cc1`, the viability index is 1.02.

With `COc1ccc(C=CC(=O)Nc2ccc3nc(N4CCN(C)CC4)cc(C)c3c2)cc1OC`, the viability index came out at 1.01.

`CCOc1cc([N+](=O)[O-])cc(C=Nc2cccc(NC(=O)c3ccco3)c2)c1O` displayed a viability index of 0.989.

In turn, `Cc1ccnc(NC(c2ccncc2)c2ccc3cccnc3c2O)c1` (stereo not drawn) registered a viability index of 0.942.

As for `COc1ccc(C=CC(=O)NC(=O)c2ccccc2O)cc1OC`, the viability index was found to be 0.693.

As for `Oc1ccc(Br)cc1C=NNc1nc2ccccc2[nH]1`, the viability index is 0.981.

Regarding `CC(C)(C)OC(=O)N1CCC(c2c(C(=O)Nc3cccc(C(F)(F)F)c3)cnn2-c2ccc(F)cc2F)CC1`, the viability index is 0.655.

The compound `CCc1ccc2ncc(C(=O)OCCOC)c(O)c2c1` registered a viability index of 0.62.

As for `CC(=O)Nc1cc([N+](=O)[O-])ccc1N1CCOCC1`, the viability index came to 0.867.

Take `CCOC(=O)c1[nH]c(C)c(Cc2ccc(OCC)cc2)c1C`: the viability index turned out to be 0.789.

Regarding `c1ccc2c(c1)OC13CCCCC1C2NCC3` (stereo not drawn), the viability index is 0.694.

Regarding `CN1C=C(c2ccc3ccccc3n2)C(c2c[nH]c3ccccc23)c2ccccc21` (stereo not drawn), the viability index turned out to be 0.848.

Compound `CCOc1ccccc1CN1CCCC(C(=O)N2CCCCCC2)C1` (stereo not drawn) returned a viability index of 0.975.

With `CC(=O)N(C1=C(N2CCOCC2)C(=O)c2ccccc2C1=O)c1ccc(I)cc1`, the viability index came to 0.14.

Take `Cc1ccc2nc(-c3ccc(NC(=O)c4ccc(S(=O)(=O)N5CC(C)CC(C)C5)cc4)cc3)sc2c1` (stereo not drawn): the viability index is 0.94.

With `CC1(C)N=C(N)N=C(N)N1c1ccccc1`, the viability index turned out to be 1.17.

On to `Cc1cccc(C)c1N(CC(=O)NCc1ccco1)S(C)(=O)=O`, for which the viability index turned out to be 0.914.

As for `CCOc1ccc(NC(=O)CSc2nc3cc(OCC)ccc3[nH]2)cc1`, the viability index turned out to be 1.16.

As for `CC1=C(CC(=O)c2cccc([N+](=O)[O-])c2)C(=O)c2ccccc2C1=O`, the viability index turned out to be 0.865.

Compound `CC(=O)NC1=NN(C(C)=O)C(c2ccc(Br)cc2)S1` (stereo not drawn) returned a viability index of 0.944.

On to `COC(=O)c1cc(NC(=S)NC(=O)c2c(OC)cccc2OC)cc(C(=O)OC)c1`, for which the viability index was 0.99.

`CC1=NOC(=O)C1=Cc1cccs1` yielded a viability index of 1.12.

`Cc1ccc([N+](=O)[O-])cc1-c1ccc(/C=C2/SC(=S)N(CC(=O)O)C2=O)o1` displayed a viability index of 1.13.

In the case of `CC1CCN(C(=O)C(C)N(c2ccccc2)S(C)(=O)=O)CC1` (stereo not drawn), the viability index turned out to be 0.917.

Take `COc1ccc(CN2CCc3nnc(CCc4ccccc4)n3CC2)c(F)c1`: the viability index turned out to be 0.933.

`CC(=O)N1c2ccc(C)cc2C(C)(c2ccccc2)CC1(C)C` (stereo not drawn): the viability index came out at 0.61.

As to `O=C1C2C(C(=O)N1c1ccc(F)cc1)C1(c3ccccc3)C(=O)C2(c2ccccc2)C(c2ccccc2)=C1c1ccccc1` (stereo not drawn), the viability index was 0.525.
